Assay results taken from the supplement of paper PMC12462457.
Counter-ions that a name gives are not always drawn. ± gives the standard deviation of the averaged measurements. The list shows a part of the results.

Test system: OVCAR8
Test: cell count relative to DMSO vehicle (fold change); OVCAR8 is a high-grade serous ovarian cancer line and CX-5461 an RNA polymerase I inhibitor; higher = more surviving senescent cells (less killing)
Conditions: senescence inducer: CX-5461 3 µM 48 h, then 6 d recovery (CX senescent), exposure time 24 h

Structure (SMILES) | cell count (compound dose 1 µM) | cell count (compound dose 5 µM)
COC(=O)C1=CC[C@@]23CC[C@@H]([C@@](C)(/C=C/C=C(\C)C(=O)O)OC2=O)[C@@]3(OC(C)=O)CC1 [Pseudolaric Acid B] | 1.18 ± 0.18 | 1.17 ± 0.13
CN1C(=O)C(C)(C)Oc2c(-c3cn(C)c(=O)c4[nH]ccc34)cc(S(C)(=O)=O)cc21 | 1.17 ± 0.12 | 0.956 ± 0.038
CN1C(=O)/C(=C2/C(=O)Nc3ccccc32)c2ccccc21 [Meisoindigo] | 0.994 ± 0.19 | 1.01 ± 0.23
CCOC(=O)Nc1cc(-c2ccc(C)c(NS(C)(=O)=O)c2)nn2c(C)nnc12 [Bromosporine] | 1.16 ± 0.035 | 1.01 ± 0.067
CCCCCC1CC1CC1CC1CCCCCCCC(=O)O (centres undefined) | 1.06 ± 0.24 | 1.03 ± 0.087
C[C@@H]1CCN(C(=O)CC#N)C[C@@H]1N(C)c1ncnc2[nH]ccc12 [Tofacitinib] | 1 ± 0.098 | 0.891 ± 0.12
C[C@@H]1CCN(C(=O)CC#N)C[C@@H]1N(C)c1ncnc2[nH]ccc12 | 1.07 ± 0.061 | 0.904 ± 0.12
O=C(/C=C/c1ccc(O)c(O)c1)OCCc1ccccc1 | 1.19 ± 0.17 | 1.26 ± 0.069
CC[C@H](C)C(=O)O[C@H]1CCC=C2C=C[C@H](C)[C@H](CC[C@@H]3C[C@@H](O)CC(=O)O3)[C@H]21 [Mevastatin] | 0.958 ± 0.23 | 0.898 ± 0.2
CC(=O)[C@]1(O)Cc2c(O)c3c(c(O)c2[C@@H](O[C@H]2C[C@H](N)[C@H](O)[C@H](C)O2)C1)C(=O)c1ccccc1C3=O [Idarubicin (hydrochloride)] | 1.05 ± 0.044 | 0.856 ± 0.071
CN(C)c1ncnc2c1ncn2[C@@H]1O[C@H](CO)[C@@H](N)[C@H]1O [Puromycin aminonucleoside] | 0.935 ± 0.095 | 0.901 ± 0.025
CCCOc1ccn2c(C(C)=O)cc(-c3ccccc3S(C)(=O)=O)c2c1 | 1.28 ± 0.098 | 1.07 ± 0.13
Cc1nc(=O)c2cc(CN(C)c3ccc(C(=O)N[C@@H](CCC(=O)O)C(=O)O)s3)ccc2[nH]1 [Raltitrexed] | 1.06 ± 0.049 | 1.12 ± 0.24
Cc1cc(O)c(-c2ccc([C@@H](C)CN)cc2)c2c1[nH]c(=O)c1sccc12 | 0.902 ± 0.13 | 0.914 ± 0.14
OC[C@H]1O[C@@H](Oc2cc(O)cc(/C=C/c3ccc(O)cc3)c2)[C@H](O)[C@@H](O)[C@@H]1O [Polydatin] | 1.04 ± 0.21 | 1.06 ± 0.064
CCC(C)(C)C(=O)N(O)Cc1ccccc1 | 1.16 ± 0.24 | 1.12 ± 0.23
Cc1ccc(C(C)C)cc1O [Carvacrol] | 1.06 ± 0.16 | 1.09 ± 0.037
COc1ccc(F)c(F)c1C(=O)c1cnc(NC2CCN(S(C)(=O)=O)CC2)nc1N | 1.03 ± 0.19 | 1.12 ± 0.11
CCN1CCN(Cc2ccc(NC(=O)c3ccc(C)c(Oc4ncnc5cc(OC)c(OC)cc45)c3)cc2C(F)(F)F)CC1 | 1.07 ± 0.23 | 0.644 ± 0.1
O=C1OCCN1/N=C/c1ccc([N+](=O)[O-])o1 [Furazolidone] | 1.17 ± 0.3 | 1.16 ± 0.054
O=S(=O)(O)c1cc(O)ccc1O [Calcium dobesilate] | 1.07 ± 0.055 | 0.976 ± 0.17
Cc1c(O)c(=O)ccn1C | 1.08 ± 0.051 | 1.15 ± 0.16
COc1cc([C@@H]2c3cc4c(cc3[C@@H](O[C@@H]3O[C@@H]5CO[C@@H](C)O[C@H]5[C@H](O)[C@H]3O)[C@H]3COC(=O)[C@H]23)OCO4)cc(OC)c1O [Etoposide] | 1.13 ± 0.088 | 1.06 ± 0.087

Structure (SMILES) | cell count (compound dose 1 µM) | cell count (compound dose 5 µM)
CN(C)C(=S)NN=C(c1ccccn1)c1ccccn1 | 1.27 ± 0.43 | 1.34 ± 0.14
O=C(NOC[C@H](O)CO)c1ccc(F)c(F)c1Nc1ccc(I)cc1F | 0.335 ± 0.095 | 0.0665 ± 0.0092
COc1ccc2c(c1)C(c1ccc(F)cc1)=C(CN1CCCC1)CO2 | 1.06 ± 0.16 | 1.03 ± 0.049
O=C1CCC(N2Cc3cc(CNC(=O)C(F)(F)c4ccc(Cl)cc4)ccc3C2=O)C(=O)N1 (centres undefined) [Cereblon modulator 1] | 1.03 ± 0.039 | 0.97 ± 0.21
CC1CCC2(OC1)OC1CC3C4CC=C5CC(OC6OC(CO)C(O)C(O)C6OC6OC(C)C(O)C(O)C6O)CCC5(C)C4CCC3(C)C1C2C (centres undefined) [Prosapogenin A] | 0.975 ± 0.027 | 0.162 ± 0.055
O=c1cc(-c2ccc(O)c(O)c2)oc2cc(O[C@@H]3O[C@H](CO)[C@@H](O)[C@H](O)[C@H]3O)cc(O)c12 [Cynaroside] | 1.08 ± 0.19 | 1.26 ± 0.33
CC1=C(CO)C(=O)O[C@@H]([C@@H](C)[C@H]2CC[C@H]3[C@@H]4C[C@H]5O[C@]56[C@@H](O)C=CC(=O)[C@]6(C)[C@H]4CC[C@]23C)C1 [Withaferin A] | 1.14 ± 0.52 | 0.0195 ± 0.0064
CC(=O)OC1CC2CCC1(C)C2(C)C (centres undefined) [Bornyl acetate] | 1.04 ± 0.24 | 1.09 ± 0.21
C=CC(=O)Nc1ccc2ncnc(Nc3cccc(Br)c3)c2c1 | 1.16 ± 0.21 | 1.02 ± 0.04
COc1cc(/C=C(\C#N)C(N)=O)cc(CSc2nc3ccccc3s2)c1O | 1.19 ± 0.067 | 1.142 ± 0.0071
CNCC[C@H](CSc1ccccc1)Nc1ccc(S(=O)(=O)NC(=O)c2ccc(N3CCN(CC4=C(c5ccc(Cl)cc5)CCC(C)(C)C4)CC3)cc2)cc1S(=O)(=O)C(F)(F)F [Desmorpholinyl Navitoclax-NH-Me] | 0.894 ± 0.18 | 0.73 ± 0.098
COc1cc(O)cc(O)c1C(=O)/C=C/c1ccccc1 [Cardamonin] | 1.14 ± 0.12 | 1.18 ± 0.24
Cc1cnc(NC(=O)C2=C(O)c3ccccc3S(=O)(=O)N2C)s1 | 1.06 ± 0.2 | 1.05 ± 0.25
CC(C)Oc1ccc(C(=O)N[C@H](CNC(=O)CN(C)C)Cc2ccc(-c3cn4cccc([C@H](C)O)c4n3)cc2)cc1Cl | 0.957 ± 0.15 | 1.12 ± 0.061
COc1ccc(/C=C/C(=O)c2c(O)cc(OC)cc2OC)cc1 [Flavokawain A] | 1.13 ± 0.12 | 1.25 ± 0.13
C=C(C)[C@@H]1CC[C@]2(C(=O)O)CC[C@]3(C)[C@H](CC[C@@H]4[C@@]5(C)CC[C@H](O)[C@@](C)(CO)[C@@H]5CC[C@]43C)[C@@H]12 [23-Hydroxybetulinic acid] | 1.11 ± 0.18 | 1.18 ± 0.3
CCOc1cc2ncc(-c3cc(N)nc(F)c3)n2cc1S(=O)(=O)C(C)(C)C | 1.27 ± 0.25 | 1.23 ± 0.13
OC[C@H]1O[C@@H](n2cnc3c(NCc4ccco4)ncnc32)[C@H](O)[C@@H]1O [Kinetin riboside] | 1.11 ± 0.067 | 0.998 ± 0.11
O=c1cc(-c2ccc(O)c(-c3c(O)cc(O)c4c(=O)cc(-c5ccc(O)cc5)oc34)c2)oc2cc(O)cc(O)c12 [Amentoflavone] | 1.09 ± 0.073 | 0.964 ± 0.11
COc1ccccc1S(=O)(=O)Nc1ccc2c(c1)CN(C)C(=O)N2 | 0.957 ± 0.19 | 1.02 ± 0.041
COc1cc(O)c(CC=C(C)C)c(O)c1C(=O)/C=C/c1ccc(O)cc1 [Xanthohumol] | 1.03 ± 0.14 | 1.05 ± 0.041
CN(C)CCOc1ccc(/C(=C(/CCCl)c2ccccc2)c2ccccc2)cc1 [Toremifene (citrate)] | 1.07 ± 0.058 | 1.07 ± 0.059
C[C@H]1C[C@H]2[C@@H]3CCC4=CC(=O)C=C[C@]4(C)[C@@]3(F)[C@@H](O)C[C@]2(C)[C@@]1(O)C(=O)CO [Betamethasone] | 1.12 ± 0.22 | 1.03 ± 0.15

Structure (SMILES) | cell count (compound dose 1 µM) | cell count (compound dose 5 µM)
Cc1noc(C)c1-c1cc(Cl)c(Nc2ccccc2C(=O)NO)c(Cl)c1 | 1.08 ± 0.24 | 1.16 ± 0.3
COc1cc2nccc(Oc3ccc(NC(=O)C4(C(=O)Nc5ccc(F)cc5)CC4)cc3)c2cc1OC [Cabozantinib malate (XL184)] | 1.22 ± 0.04 | 1.2 ± 0.31
COc1cc2nccc(Oc3ccc(NC(=O)C4(C(=O)Nc5ccc(F)cc5)CC4)cc3)c2cc1OC | 1.32 ± 0.16 | 1.36 ± 0.23
CCOc1nc2cccc(C(=O)O)c2n1Cc1ccc(-c2ccccc2-c2noc(=O)[nH]2)cc1 [Azilsartan] | 1.02 ± 0.25 | 0.926 ± 0.0099
FC1(F)N=C(c2ccc(Cl)cc2)SC1(F)c1ccc(Cl)cc1 (centres undefined) [Fluorizoline] | 1.04 ± 0.068 | 0.685 ± 0.19
Cc1onc(C(=O)N2CCN(C(c3ccc(Cl)cc3)c3ccc(Cl)cc3)CC2)c1[N+](=O)[O-] | 0.0155 ± 0.012 | 0.015 ± 0.0028
Nc1ccccc1NC(=O)c1ccc(CNC(=O)OCc2cccnc2)cc1 [Entinostat (MS-275)] | 1.26 ± 0.13 | 1.28 ± 0.023
CCCCC1=NC2(CCCC2)C(=O)N1Cc1ccc(-c2ccccc2-c2nnn[nH]2)cc1 | 1.09 ± 0.091 | 0.982 ± 0.17
CN(C)CC[C@H](CSc1ccccc1)Nc1ccc(S(=O)(=O)NC(=O)c2ccc(N3CCN(Cc4ccccc4-c4ccc(Cl)cc4)CC3)cc2)cc1[N+](=O)[O-] | 1.09 ± 0.1 | 0.92 ± 0.044
O=[N+]([O-])c1ccc2c(c1)S(=O)(=O)C=C2 [Stattic] | 1.13 ± 0.14 | 1.16 ± 0.11
CNC(=O)c1ccc(-c2cnc3ncc(Cc4ccc5ncccc5c4)n3n2)cc1F [Capmatinib] | 1.04 ± 0.23 | 0.98 ± 0.27
CCOC(=O)[C@H](CCc1ccccc1)N[C@@H](C)C(=O)N1[C@H](C(=O)O)C[C@@H]2CCC[C@@H]21 [Ramipril] | 1.18 ± 0.013 | 1.16 ± 0.15
O=C(COc1ccc(Cl)cc1)NC1CCC(NC(=O)COc2ccc(Cl)cc2)CC1 (stereo not drawn) [ISRIB (trans-isomer)] | 0.907 ± 0.1 | 1.04 ± 0.23
O=c1c(O)c(-c2ccc(O)c(O)c2)oc2cc(O)ccc12 | 1.16 ± 0.17 | 1.22 ± 0.21
O=C1C2C3C=CC(C4CC34)C2C(=O)N1c1ccc(Cc2ccncc2)cc1 (centres undefined) | 1.04 ± 0.042 | 1.02 ± 0.18
COc1cc2c(cc1OC(C)C)[C@H](c1ccc(Cl)cc1)N(c1ccc(N(C)C[C@H]3CC[C@H](N4CCN(C)C(=O)C4)CC3)cc1)C(=O)C2 | 0.95 ± 0.26 | 0.801 ± 0.066
Cc1cc(C2CCCCC2)n(O)c(=O)c1 | 1.06 ± 0.18 | 1.2 ± 0.083
CCc1cc2c(=O)c(-c3nc4ccccc4s3)coc2c(CN2CCCCC2)c1O | 1.25 ± 0.22 | 1.13 ± 0.21
C[C@H]1[C@H](C)CC[C@]2(C(=O)O)CC[C@]3(C)C(=CC[C@@H]4[C@@]5(C)CCC(=O)C(C)(C)[C@@H]5CC[C@]43C)[C@H]12 [Ursonic acid] | 1.13 ± 0.41 | 0.903 ± 0.22
CCn1c(=O)c(-c2cc(NC(=O)Nc3ccccc3)c(F)cc2Br)cc2cnc(NC)cc21 [Ripretinib] | 0.957 ± 0.085 | 0.705 ± 0.029
CCOc1cc([C@@H](CS(C)(=O)=O)N2C(=O)c3cccc(NC(C)=O)c3C2=O)ccc1OC [Apremilast] | 0.927 ± 0.25 | 0.944 ± 0.15
